Data taken from the supplement of paper PMC4723716.
± gives the uncertainty stated by the source. Whole data set: some 9,900 compounds, median “viability index relative to DMSO control” near 1, cut for the lowest 2% near 0.85. The list shows a part of the results.

What follows are molecules tested on Plasmodium falciparum NF54 stage V gametocytes (assay: viability index relative to DMSO control (fraction); higher = less gametocyte killing). Settings: 2.5 µM, library set: Broad Institute DOS, incubation time: 72 h.
How it was run: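 In 1,536-well plates, 10 µl of serum-free medium holding P. falciparum NF54 stage V gametocytes (0.75% gametocytemia, 1.25% hematocrit) received compound at 2.5 µM for 72 hr at 37°C in low oxygen. After one to two hours with 3 µl of 2.5 µM MitoTracker Red CMXRos containing 0.13% saponin, red particles of 20–70 µm2 were counted in a single field per well. Viability index is reported as the particle count over the plate mean of wells treated with solvent only.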
With `COc1cccc(NC(=O)N[C@@H]2C=C[C@H](CC(=O)NCc3ccncn3)O[C@H]2CO)c1` the viability index was 1.1 ± 0.023. `COc1ccc(S(=O)(=O)N2C[C@@H](O)COC[C@H]3O[C@@H](CC(=O)N[C@@H]4CCN(Cc5ccccc5)C4)CC[C@@H]32)cc1` showed a viability index of 1.08 ± 0.028. `C[C@@H]1CN([C@H](C)CO)C(=O)c2cc(-c3cccc(C#N)c3)cnc2O[C@H]1CN(C)C(=O)C1CCOCC1` gave a viability index of 1.03 ± 0.011. With `COc1ccccc1-c1cn(CC[C@H]2CC[C@@H](NC(=O)C3CCCCC3)[C@H](CO)O2)nn1` the viability index was 1.014 ± 0.0066. Molecule `CC(=O)N1C[C@@H]2[C@H](c3ccccc31)[C@H](CO)N2Cc1ccc(Cl)cc1` has a viability index of 1.1 ± 0.018. For `C[C@H](CO)N1C[C@H](C)[C@@H](CN(C)C(=O)Nc2cccc(Cl)c2Cl)OCc2ccccc2-c2ccccc2C1=O`, the viability index was 0.845 ± 0.043. For `C[C@@H]1CN([C@@H](C)CO)C(=O)c2ccccc2-c2ccccc2CO[C@@H]1CN(C)C(=O)[C@H](Cc1ccccc1)N(C)C`, the viability index was 0.985 ± 0.014. Work on `O=C1CN(S(=O)(=O)c2cccc(F)c2)C[C@H]2[C@@H](c3ccc(C4=CCCC4)cc3)[C@@H](CO)N12` yielded a viability index of 1.094 ± 0.0029. `N#C[C@@H]1[C@H](c2ccccc2)[C@@H](CO)N1C(=O)Nc1cccc(F)c1` gave a viability index of 0.997 ± 0.036. Molecule `COc1cccc(NC(=O)Nc2ccc3c(c2)C(=O)N(C)C[C@@H](OC)[C@@H](C)CN(CC2CC2)[C@H](C)CO3)c1` has a viability index of 1.0478 ± 0.00077. With `CCCC(=O)Nc1ccc2c(c1)OC[C@H](C)N(C(=O)c1cccnc1)C[C@@H](C)[C@@H](OC)CN(C)C2=O` the viability index was 1.064 ± 0.005. `CCCNC(=O)Nc1ccc2c(c1)OC[C@@H](C)N(Cc1cncnc1)C[C@H](C)[C@H](OC)CN(C)C2=O` gave a viability index of 1.06 ± 0.12. In the case of `C[C@H]1CN([C@@H](C)CO)C(=O)CCCn2cc(nn2)CO[C@@H]1CN(C)S(=O)(=O)c1cccc(C#N)c1`, the viability index is reported as 1.09 ± 0.041. For `CCc1cnc(N2[C@@H](C#N)[C@@H](c3ccc(-c4cccc(F)c4)cc3)[C@@H]2CO)s1`, the viability index was 1.058 ± 0.0019. With `CO[C@@H](CN(C)S(=O)(=O)c1ccc(C)cc1)[C@H](C)CN([C@@H](C)CO)S(=O)(=O)c1cccc(Cl)c1` the viability index was 1.1 ± 0.016. Molecule `COCc1cn(CC[C@@H]2CC[C@@H](NC(=O)Nc3c(C)noc3C)[C@H](CO)O2)nn1` has a viability index of 1.1 ± 0.11. `COc1ccc2c3c([C@@H](CO)N(C)C[C@]33CN(C3)S(=O)(=O)c3cccs3)n(C)c2c1` gave a viability index of 1.05 ± 0.18. Molecule `COc1ccccc1-c1ccc2c(c1)O[C@@H](CN(C)CC1CCOCC1)[C@H](C)CN([C@@H](C)CO)S2(=O)=O` has a viability index of 1.015 ± 0.009. For `COc1ccc2c3c([C@H](CO)N(C[C@]33CN(Cc4ccc(Cl)cc4)C3)C(C)=O)n(C)c2c1`, the viability index was 1.17 ± 0.1. `CN1CCCCN2[C@@H](CO)[C@@H](c3ccc(-c4ccc(F)cc4)cc3)[C@@H]2C1` gave a viability index of 1.07 ± 0.075. For `C[C@@H]1CN([C@H](C)CO)C(=O)c2cc(-c3ccc(F)cc3)cnc2O[C@@H]1CN(C)S(C)(=O)=O`, the viability index was 1.04 ± 0.098. In the case of `COc1cccc(NC(=O)Nc2ccc3c(c2)C(=O)N(C)C[C@@H](OC)[C@H](C)CN[C@@H](C)CO3)c1`, the viability index is reported as 0.983 ± 0.059. `Cc1noc(C)c1NC(=O)N1C[C@@H](O)COC[C@H]2O[C@@H](CC(=O)NCC3CC3)CC[C@@H]21` was tested, and the viability index was 1.04 ± 0.053. `N#Cc1cccc(-c2ccc3c(c2)[C@H]2[C@H](CCN2C(=O)c2ccccc2F)[C@H](CO)N3)c1` gave a viability index of 1.087 ± 0.0066. For `CCC(=O)N1[C@@H](CO)[C@@H]2c3ccccc3N(C(=O)Nc3ccc(Cl)cc3)C[C@@H]21`, the viability index was 1.1 ± 0.044. In the case of `COCCNC(=O)C[C@H]1C[C@H]2c3cc(NC(=O)CN(C)C)ccc3O[C@H]2[C@H](CO)O1`, the viability index is reported as 1.02 ± 0.018. `COc1ccccc1CNC(=O)C[C@@H]1C=C[C@H](NC(=O)CC2CC2)[C@@H](CO)O1` gave a viability index of 1.0392 ± 0.00021. Work on `CO[C@H]1CN(C)C(=O)c2cccc(C#N)c2OCC[C@@H]2CC[C@@H](OC)[C@H](CN(C)C(=O)[C@H]1C)O2` yielded a viability index of 0.9918 ± 0.007. `O=C(C1CCOCC1)N1CC(=O)N2[C@H](C1)[C@@H](c1ccc(C#CC3CCCCC3)cc1)[C@@H]2CO` gave a viability index of 1.05 ± 0.036. Molecule `C[C@@H]1CCCCO[C@@H](CN(C)S(=O)(=O)c2ccccc2)[C@@H](C)CN([C@H](C)CO)C(=O)c2cc(NC(=O)Nc3ccc4c(c3)OCO4)ccc2O1` has a viability index of 1 ± 0.083. For `C[C@@H]1CN([C@H](C)CO)C(=O)c2cc(NC(=O)Nc3ccc4c(c3)OCO4)ccc2O[C@@H](C)CCCCO[C@H]1CN(C)S(=O)(=O)c1ccccc1`, the viability index was 0.923 ± 0.028. `COc1ccc([C@@H]2C/C=C/C[C@H](C)Oc3ccccc3C(=O)N(C)[C@@H](C(C)C)C(=O)N2)c(OC)c1.COc1ccc([C@@H]2C/C=C\C[C@H](C)Oc3ccccc3C(=O)N(C)[C@@H](C(C)C)C(=O)N2)c(OC)c1` was tested, and the viability index was 0.9109 ± 0.0019. Molecule `O=C(O)C[C@H]1C[C@H]2c3cc(NC(=O)Nc4ccc(C(F)(F)F)cc4)ccc3O[C@H]2[C@H](CO)O1` has a viability index of 1.13 ± 0.032. Work on `C[C@@H]1CN([C@@H](C)CO)C(=O)c2ccccc2-c2ccccc2CO[C@@H]1CN(C)S(=O)(=O)Cc1ccccc1` yielded a viability index of 0.949 ± 0.053. Molecule `N#C[C@H]1[C@@H](c2ccc(-c3cccc(F)c3)cc2)[C@H](CO)N1C(=O)NC1CCCC1` has a viability index of 1.055 ± 0.0015. Work on `COc1ccc2c3c([nH]c2c1)[C@@H](CO)N(C[C@]31CN(Cc2cccnc2)C1)C(=O)CC1CC1` yielded a viability index of 0.992 ± 0.04. `O=C(C[C@@H]1CC[C@@H](NC(=O)c2ccc(F)cc2)[C@@H](CO)O1)NCCc1ccccc1` was tested, and the viability index was 1.09 ± 0.055. `COc1ccccc1C#Cc1ccc2c(c1)[C@@H]1[C@@H](CCN1S(=O)(=O)c1cn(C)cn1)[C@@H](CO)N2` was tested, and the viability index was 1.08 ± 0.031. `CCS(=O)(=O)N1[C@H](CO)[C@H](c2ccc(C#Cc3ccccc3F)cc2)[C@@H]1C#N` gave a viability index of 1.03 ± 0.031. With `COc1ccc(-c2ccccc2[C@@H]2[C@@H](C#N)N(C(=O)NC(C)C)[C@H]2CO)cc1` the viability index was 1.17 ± 0.056. Work on `Cc1ccccc1-c1ccc([C@H]2[C@H](CO)N3C(=O)CN(S(C)(=O)=O)C[C@@H]23)cc1` yielded a viability index of 1.04 ± 0.017. With `C[C@@H]1CN([C@H](C)CO)C(=O)c2cccc(NS(C)(=O)=O)c2O[C@@H]1CN(C)Cc1ccc(-c2ccccc2)cc1` the viability index was 1.02 ± 0.028. `O=C(C[C@H]1CC[C@@H](NS(=O)(=O)c2ccc(F)cc2)[C@@H](CO)O1)N1CCN(c2ccccc2)CC1` was tested, and the viability index was 1.17 ± 0.097. `C[C@@H]1CCCCO[C@@H](CN(C)C(=O)Cc2ccccc2)[C@@H](C)CN([C@@H](C)CO)C(=O)c2cc(NS(C)(=O)=O)ccc2O1` gave a viability index of 0.99 ± 0.038. `CO[C@@H]1CN(C)C(=O)c2cc(NC(=O)c3cccc(F)c3)ccc2OC[C@@H](C)N(C)C[C@@H]1C` was tested, and the viability index was 0.956 ± 0.018. With `C[C@H](O)C#Cc1ccc([C@H]2[C@H]3CN(C(=O)c4ccc5c(c4)OCO5)CCCCN3[C@H]2CO)cc1` the viability index was 1.07 ± 0.065. Molecule `C[C@H](CO)N1C[C@H](C)[C@@H](CN(C)Cc2ccncc2)OCCCC[C@H](C)Oc2ccc(NC(=O)Cc3ccccc3)cc2C1=O` has a viability index of 1.04 ± 0.013. Molecule `N#C[C@@H]1[C@H](c2ccccc2-c2ccccc2F)[C@@H](CO)N1C(=O)c1cccc(F)c1` has a viability index of 1.09 ± 0.13. In the case of `CCS(=O)(=O)N1Cc2cc(C(=O)NCCOC)nc(-c3cccc(-c4ccncc4)c3)c2[C@H]1CCO`, the viability index is reported as 1.04 ± 0.026. With `O=C(C[C@@H]1C=C[C@@H](NC(=O)Nc2ccc3c(c2)OCO3)[C@@H](CO)O1)NCCCN1CCOCC1` the viability index was 1.02 ± 0.075. In the case of `COc1ccc2c3c([C@H](CO)N(C[C@]33CCN(Cc4ccccc4OC)CC3)C(C)=O)n(C)c2c1`, the viability index is reported as 1.1 ± 0.021. With `C[C@H]1CN([C@@H](C)CO)C(=O)c2cccc(NC(=O)NC3CCCCC3)c2O[C@@H]1CN(C)Cc1ccc(C(F)(F)F)cc1` the viability index was 0.9452 ± 0.0071. `N#C[C@@H]1[C@@H](c2ccccc2)[C@@H](CO)N1C(=O)c1ccc2c(c1)OCO2` gave a viability index of 1.099 ± 0.0033. Molecule `COc1ccc(NC(=O)N2CCCCN3[C@H](C2)[C@@H](c2ccc(-c4ccccc4F)cc2)[C@@H]3CO)cc1` has a viability index of 0.981 ± 0.042. In the case of `COc1ccc(-c2cnc3c(c2)C(=O)N([C@H](C)CO)C[C@@H](C)[C@@H](CN(C)C(=O)Nc2c(C)noc2C)O3)cc1`, the viability index is reported as 0.962 ± 0.029. Work on `N#C[C@@H]1[C@@H](c2ccccc2C2=CCCC2)[C@@H](CO)N1C(=O)NC1CCCCC1` yielded a viability index of 1.03 ± 0.051. `C/C=C/c1cnc2c(c1)C(=O)N([C@@H](C)CO)C[C@H](C)[C@@H](CN(C)C(=O)Nc1cccc(OC)c1)O2` gave a viability index of 0.983 ± 0.039. In the case of `C[C@@H]1CN([C@H](C)CO)C(=O)c2cccc(NC(=O)c3cnccn3)c2O[C@H]1CN(C)C(=O)NC1CCCCC1`, the viability index is reported as 1.03 ± 0.073. In the case of `Cc1noc(C)c1NC(=O)N(C)C[C@@H]1OCCCC[C@H](C)Oc2ccc(NC(=O)Nc3ccc(C(F)(F)F)cc3)cc2C(=O)N([C@@H](C)CO)C[C@@H]1C`, the viability index is reported as 1.04 ± 0.12. `CN1c2ccc(Br)cc2[C@H]2[C@H](CCN2C(=O)Cc2ccccc2)[C@H]1CO` was tested, and the viability index was 1.1417 ± 0.00016. In the case of `CN1C(=O)c2cc(NC(=O)c3ccc4c(c3)OCO4)ccc2OC[C@H]2O[C@@H](CC(=O)O)CC[C@H]21`, the viability index is reported as 1.12 ± 0.092. Work on `CN(C)C(=O)c1cccc(-c2ccc([C@@H]3[C@@H](CO)N4CCCCN(CC5CCOCC5)C[C@@H]34)cc2)c1` yielded a viability index of 1.05 ± 0.053. `C/C=C/c1ccc([C@H]2[C@@H](CO)N3C(=O)CN(C(=O)Nc4ccc(F)cc4)C[C@@H]23)cc1` was tested, and the viability index was 1.09 ± 0.053. With `CCCC(=O)Nc1ccc2c(c1)C(=O)N(C)C[C@@H](OC)[C@@H](C)CN(Cc1ccc(F)cc1)[C@@H](C)CO2` the viability index was 0.941 ± 0.11. In the case of `C[C@@H]1CCCCO[C@@H](CN(C)S(=O)(=O)c2ccc(F)cc2)[C@@H](C)CN([C@@H](C)CO)C(=O)c2cc(N(C)C)ccc2O1`, the viability index is reported as 0. `O=C(NC1CCCC1)N[C@@H]1C=C[C@@H](CC(=O)N2CCOCC2)O[C@H]1CO` gave a viability index of 1.08 ± 0.077. With `CN(C)C(=O)C[C@H]1CC[C@@H]2[C@H](COc3ccc(NC(=O)C4CCCCC4)cc3C(=O)N2C)O1` the viability index was 1.01 ± 0.047. Molecule `CO[C@H]1CC[C@@H]2CCOc3c(C#N)cccc3C(=O)N(C)C[C@H](OC)[C@@H](C)C(=O)N(C)C[C@H]1O2` has a viability index of 1.05 ± 0.031. Work on `O=C(Nc1ccc(Cl)cc1)N1C[C@H]2[C@@H](c3ccccc31)[C@H](CO)N2CC1CCCCC1` yielded a viability index of 1.032 ± 0.0086.
